# Measured values reported in PubChem BioAssay AID1508642 (National Center for Advancing Translational Sciences (NCATS), 2021).
# Hit rate of the full screen: of about 43,000 compounds, about 200 (0.47%) were called active. Inconclusive results (about 12%) are left out. The call rests on the fitted dose curve; in most records, active means well fitted cell-killing curve with a large enough effect; inconclusive means small, poorly fitted or top-dose-only effect, or effect the other way; inactive means flat fitted curve, though single readings scatter. Some of the results follow.
# Assay: Cell viability qHTS assay in S16 Pmp22-F2sN cells; further: nearly all actives have a fitted effect of over 65% in size
# Settings: S16 Pmp22-F2sN Schwann cells (luciferase reporters placed in the Pmp22 gene) viability, CellTiter-Glo, 24 h; series mostly up to 57.5 µM; activity change, negative = cytotoxicity: at the top concentration
# Outline: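 Seed 500-1,000 S16 Pmp22-F2sN cells per well in phenol-red-free DMEM with 10% heat-inactivated FBS; pin-add 23 nL compound; incubate 24 h at 37C; add CellTiter-Glo, wait 15 min protected from light; read luminescence.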
# On the % scale 0 is the no-effect control and ±100 the full control effect.
row,SMILES,"activity change, negative = cytotoxicity"
1,COc1ccc(OCC(=O)OCc2cc(=O)n3nc(C4CCCCC4)sc3n2)cc1,inactive: 8.15%
2,COc1ccc(-c2[nH]ncc2C(=O)NCc2ccccc2C)cc1,inactive: -17.9%
3,CC(=O)N1CCCc2cc(S(=O)(=O)N3CCC(C(=O)NCc4ccc(C)cc4)CC3)ccc21,inactive: 2.25%
4,COC(=O)c1ccccc1NC(=O)Cn1c(=O)n(-c2cccc(OC)c2)c(=O)c2c(C)c(C(=O)N(C)C)sc21,inactive: -5.23%
5,Cc1onc(-c2ccccc2Cl)c1C(=O)Oc1cc(F)cc(F)c1,inactive: 1.36%
6,Cc1ccc(C(=O)NCc2ccc(N(C)C)cc2)cc1NC(=O)c1nsc2ccccc12,inactive: -5.42%
7,CC1CCC(NC(=O)c2ccc3c(c2)N(Cc2ccccc2)C(=O)c2ccccc2S3=O)CC1 (stereo unspecified),inactive: -12.1%
8,COc1cc(-c2nnn(CC(=O)Nc3ccc(OC(F)(F)F)cc3)n2)cc(OC)c1OC,inactive: -13.1%
9,CCOC(=O)c1c(C)[nH]c(CCC(=O)Nc2cc(C)ccc2OC)c1C,inactive: -10.7%
10,Cc1cccc(C)c1NC(=O)c1oc2ccc3c(c2c1C)C(=O)CC(C)(C)O3,inactive: 2.07%
11,Cc1cccn2c(=O)c(C(=O)NCCCN3CCCCC3C)c(O)nc12 (stereo unspecified),inactive: 8.04%
12,O=C(Cn1ncc2c1-c1ccccc1OC2)N1CCN(c2ccccc2F)CC1,inactive: 1.6%
13,COc1ccccc1CNC(=O)C1CCCN(S(=O)(=O)c2ccc3c(c2)CCCN3C(C)=O)C1 (stereo unspecified),inactive: -12.2%
14,O=C(CSCc1ccccc1Cl)N1CCN(c2ccc(F)cc2)CC1,inactive: -3.4%
15,CN1C(C(=O)Nc2ccc(F)cc2F)=CC(c2ccco2)=NS1(=O)=O,inactive: 3.94%
16,Cc1nnc(NCc2ccccc2)c2c1nnn2Cc1ccccc1Cl,inactive: -3.08%
17,CCc1ccc2c(c1)c(=O)c(S(=O)(=O)c1ccc(F)cc1)cn2CC(=O)Nc1ccc(C)cc1C,inactive: 6.05%
18,Cc1ccc(CNC(=O)C2CCCN(S(=O)(=O)c3cccc4nsnc34)C2)cc1 (stereo unspecified),inactive: -2.27%
19,CCCn1ccc2c(OCC(=O)NCc3ccc(C)cc3)cccc2c1=O,inactive: 9.56%
20,CCc1nn2c(=O)cc(COC(=O)c3cccc(NC(=O)c4ccccc4Cl)c3)nc2s1,inactive: 10.6%
21,Cc1cc2ncn(CCCCOc3ccccc3)c2cc1C,inactive: -19.4%
22,Cc1cccc(NC(=O)c2ccc(N(Cc3ccccc3)S(C)(=O)=O)cc2)c1,inactive: 24.7%
23,COc1ccc(CNC(=O)c2cnc3sc(N4CCCC4)nn3c2=O)cc1OC,inactive: -1.28%
24,Cc1ccc2c(c1)C(c1ccc(F)cc1)N(C(=O)COc1ccc(Cl)cc1Cl)CC(=O)N2 (stereo unspecified),inactive: -28.5%

row,SMILES,"activity change, negative = cytotoxicity"
1,COc1ccccc1N1CCN(C(=O)c2nn(-c3ccc(C)cc3)c(=O)n(C)c2=O)CC1,inactive: 11.8%
2,CC(=O)c1c(C)nc2nc(-c3ccccc3)nn2c1C,inactive: 14.6%
3,COC(=O)C1=C(CS(=O)(=O)c2cc(Cl)ccc2OC)NC(=O)NC1c1ccccc1 (stereo unspecified),inactive: 5.07%
4,CCCCOc1ccc(C(=O)N2CCN(CCc3ccncc3)CC2)cc1,inactive: 18.2%
5,Cc1cc2nnc(SCC(=O)Nc3ccc(F)c(Cl)c3)n2c2ccccc12,inactive: 10.6%
6,COc1cc(OC)c(NC(=O)C2CCCN(c3ncnc4c3nc3n4CCCCC3)C2)cc1Cl (stereo unspecified),inactive: 2.56%
7,O=C(COc1ccccc1Cl)NCC1(N2CCOCC2)CCCCC1,inactive: -15.8%
8,CCc1ccc(OCC(=O)Nc2cc3oc4ccccc4c3cc2OC)cc1,inactive: 4.37%
9,CCc1ccccc1NC(=O)Cn1c(=O)n(Cc2ccc3c(c2)OCO3)c(=O)c2ccc(C(=O)NC3CCCCC3)cc21,inactive: 11.7%
10,Cc1ccccc1-c1nc(CS(=O)(=O)CC(=O)NCC(C)c2ccccc2)c(C)o1 (stereo unspecified),inactive: -4.06%
11,CCN1CCN(CCCNC(=O)c2cc3c(=O)n(C)c4ccccc4c3s2)CC1,inactive: -9.18%
12,O=C(NCCc1ccccc1)c1cnc2sc(N3CCCC3)nn2c1=O,inactive: 13.1%
13,CCCc1nn2c(=O)cc(COC(=O)c3cccc(NC(=O)COc4ccccc4C)c3)nc2s1,inactive: -3%
14,COc1cc(OC)c(NC(=O)N2CCc3cc(OC)c(OC)cc3C2CC(=O)O)cc1Cl (stereo unspecified),inactive: 22.9%
15,COc1ccc(C(=O)Nc2nnc(C)s2)cc1,inactive: 28.1%
16,CCCCOC(=O)CSc1nnc(-c2ccc(C)cc2)o1,inactive: 5.29%
17,COc1ccc(N2CCN(c3ncnc4onc(-c5ccc(F)cc5)c34)CC2)cc1,inactive: 3.37%
18,Cc1ccc(CCNC(=O)c2ccc3c(c2)N(Cc2ccccc2)C(=O)c2ccccc2S3=O)cc1 (stereo unspecified),inactive: -12%
19,Cc1cccc(NC(=O)c2ccc(F)c(S(=O)(=O)N3CCC4(CC3)OCCO4)c2)c1,inactive: -23.8%
20,O=C(CSc1nnc(-c2ccc(Cl)cc2)o1)Nc1ccc(F)cc1,inactive: -0.247%
21,CC(=O)N1CCc2c(sc3c2c(=O)n(CCc2ccccc2)c(=O)n3CC(=O)Nc2ccc(C)c(F)c2)C1,inactive: -19.9%
22,COc1cccc2c1Oc1ncccc1N(c1ccc(C(=O)NCc3ccccc3Cl)s1)C2,inactive: -19.4%
23,Cc1ccc2c(c1)Cc1c(nc(-c3ccc(Cl)cc3)nc1SCC(=O)N1CCCCC1)O2,inactive: -6.74%
24,Cc1ccc2onc(CNC(=O)Nc3cc(F)ccc3F)c2c1,inactive: -3.44%

row,SMILES,"activity change, negative = cytotoxicity"
1,Cc1ccn2c(Nc3ccc4c(c3)OCCO4)c(-c3cccs3)nc2c1,inactive: -1.26%
2,Cc1ccc(Cl)cc1NC(c1ccc(F)cc1)c1nnc(-c2ccccc2)o1 (stereo unspecified),inactive: 0.152%
3,Cc1ccc(NC(=O)C(CC(C)C)NS(=O)(=O)c2ccc3c(c2)oc(=O)n3C)c(C)c1 (stereo unspecified),inactive: 3.29%
4,COc1ccc(Nc2cc(C)nc3c(C)c(C)ccc23)cc1,inactive: 19.1%
5,CCC1CN(C(=O)Nc2ccc(Br)cc2F)c2ccccc2S1 (stereo unspecified),inactive: -1.04%
6,O=C(NCC(c1ccc(Cl)cc1)N1CCCCC1)c1ccccc1F (stereo unspecified),inactive: 10.2%
7,COc1ccccc1N1CCN(C(=O)CSc2n[nH]c(-c3ccccc3Cl)n2)CC1,inactive: 3.87%
8,CCOc1ccc(OCC)c(NC(=O)CCc2nc3cccnc3n2-c2ccccc2)c1,inactive: 10.8%
9,COC(=O)C(NC(=O)CCc1c(C)nc2c(c(C)nn2-c2ccccc2)c1C)C(C)C (stereo unspecified),inactive: 13.8%
10,Cc1ccccc1NC(=O)[C@H](CSCc1ccccc1)N1Cc2ccccc2C1=O,inactive: -19.7%
11,COc1ccc(NC(=O)Cn2c(=O)n(-c3cccc(C(F)(F)F)c3)c(=O)c3sccc32)cc1,inactive: 2.8%
12,C#CCn1c(C2CC(=O)N(c3ccc(OCC)cc3)C2)nc2ccccc21 (stereo unspecified),inactive: -3.71%
13,CCN(CC)C(=O)C1CCN(c2nnc(C)c3c(C)n(-c4ccc(Cl)cc4)nc23)CC1,inactive: 2.67%
14,O=C(NCc1ccc(F)cc1)c1cnc(N2CCCCC2)c2ccccc12,inactive: 5.93%
15,CCCOc1ccc(CNC(=O)C2CCCN(c3nc4c(C)cc(C)cc4s3)C2)cc1 (stereo unspecified),inactive: -0.648%
16,COc1cc(OC)cc(C(=O)Nc2ccc3nc(Nc4cccc(C(F)(F)F)c4)cc(C)c3c2)c1,inactive: -5.63%
17,CCOc1ccc(C(=O)NCC(c2ccco2)S(=O)(=O)c2cccs2)cc1 (stereo unspecified),inactive: -1.29%
18,Cc1ccccc1NC(=O)Cn1c(=O)n(Cc2ccccc2)c(=O)c2sc3ccccc3c21,inactive: -0.598%
19,COC(=O)c1ccc(C(=O)OC)c(NC(=O)c2cnn3c(C(F)F)cc(-c4ccccc4)nc23)c1,inactive: 16.9%
20,Cc1ccccc1-c1nn2c(=O)cc(CN3CCN(S(=O)(=O)c4ccc(Cl)cc4)CC3)nc2s1,inactive: -6.83%
21,COc1ccc(-c2nc(CNC(=O)Nc3ccccc3)c(C)o2)cc1,inactive: -9.08%
22,COc1ccccc1N1CCN(C(=O)c2cc(S(=O)(=O)N3CCC(C)CC3)cn2C)CC1,inactive: 16.9%
23,COc1ccc(-n2c(=O)c3ccccc3n(Cc3cccc(C)c3)c2=O)cc1,inactive: 25%
24,CCCN(c1ccc(C(C)C)cc1)S(=O)(=O)c1ccc2c(c1)oc(=O)n2CC(=O)OCC,inactive: -3.56%

row,SMILES,"activity change, negative = cytotoxicity"
1,COc1cccc(Cn2c(CNS(=O)(=O)c3ccc(C(C)(C)C)cc3)nc3cccnc32)c1,inactive: -4.05%
2,Cc1ccccc1N(C)S(=O)(=O)c1nnc(NC(=O)C(C)C)s1,inactive: -1%
3,CCOC(=O)c1ccc(N2C(=O)c3n[nH]c(C)c3C2c2ccc(OCC)cc2)cc1 (stereo unspecified),inactive: 23.5%
4,O=C(Nc1nnc(S(=O)(=O)Nc2ccccc2)s1)C1CCCCC1,inactive: 9.05%
5,CCOC(=O)Cn1c(=O)n(CC2CCCO2)c2nc(-c3ccc(C(C)C)cc3)nc(C(N)=O)c21 (stereo unspecified),inactive: 0.59%
6,Cc1ccc(Cl)cc1N1CCN(C(=O)CCNS(=O)(=O)c2ccc3c(c2)CCN3C(=O)C2CC2)CC1,inactive: -17.9%
7,Cc1ccc(NC(=O)NCc2cccn2Cc2ccccc2)c(C)c1,inactive: 3.19%
8,CCCCCSc1ncnc2c1sc1nc(N3CCOCC3)c3c(c12)CCCC3,inactive: 3.76%
9,CCOC(=O)c1scc(-c2ccc(C)cc2)c1S(=O)(=O)N1CCN(c2ccccc2F)CC1,inactive: -1.53%
10,O=C(CCC1N=C2c3ccccc3N=C(SCc3cccc(F)c3)N2C1=O)NCc1cccs1 (stereo unspecified),inactive: -11.3%
11,CCOc1ccc(OCC)c(NC(=O)c2ccc(-c3ccccc3)s2)c1,inactive: 4.94%
12,Cc1nc2nc(SCC(=O)NC3CCC(C)CC3)nn2c(C)c1Cc1ccccc1 (stereo unspecified),inactive: 0.189%
13,COC(=O)c1ccc(-c2nc3cc(NC(C)=O)ccc3o2)cc1,inactive: 5.12%
14,CCOc1ccc(CCNC(=O)c2sc3ncccc3c2-n2cccc2)cc1OCC,inactive: -3.78%
15,CCC(C)NC(=O)Cn1c(=O)n(-c2ccc(C)c(C)c2)c(=O)c2c3c(sc21)CCCCC3 (stereo unspecified),inactive: 2.03%
16,Cc1cccc(CS(=O)(=O)Cc2ccc(C(=O)NCCc3ccccc3)o2)c1,inactive: -18.1%
17,COc1ccc(CCNc2nc(-c3ccc(OC)c(OC)c3)cc(C(F)(F)F)n2)cc1OC,inactive: -13.6%
18,CCOC(=O)c1c(S(=O)(=O)N2CCCC(C(=O)NCc3cccc(OC)c3)C2)c(C)n(C)c1C (stereo unspecified),inactive: -2.96%
19,Cc1ccc(N2CC(NC(=O)c3ccc(S(=O)(=O)N4CCCC4)cc3)CC2=O)cc1C (stereo unspecified),inactive: -0.608%
20,Cc1cc(C)cc(-n2ccn(CC(=O)Nc3cc(C)ccc3C)c(=O)c2=O)c1,inactive: 6.36%
21,CCn1cc(C(=O)NCCCN2CCCC(C)C2)c(=O)c2cc(S(=O)(=O)N(C)C3CCCCC3)ccc21 (stereo unspecified),inactive: -3.98%
22,COc1ccc(-c2nnc(SCC(=O)NC3CCCC3)nc2-c2ccc(OC)c(OC)c2)cc1OC,inactive: -3.61%
23,COc1cccc(OC)c1C(=O)Nc1cccc(-c2cn3ccsc3n2)c1,inactive: 0.176%
24,Cc1ccc(NC(=O)CCCc2nnc3n(C)c(=O)c4sccc4n23)cc1F,inactive: 3.52%
